Molecular target: T1, CREB-regulated transcription coactivator-1 (CRTC1) (mouse (endogenous in primary cortical …, UniProt Q68ED7 1-630))
T1 construct: also called endogenous CRTC1; source: endogenous, mouse primary cortical neurons (12 DIV), formaldehyde-crosslinked, in lysate
T1 sequence (looked up): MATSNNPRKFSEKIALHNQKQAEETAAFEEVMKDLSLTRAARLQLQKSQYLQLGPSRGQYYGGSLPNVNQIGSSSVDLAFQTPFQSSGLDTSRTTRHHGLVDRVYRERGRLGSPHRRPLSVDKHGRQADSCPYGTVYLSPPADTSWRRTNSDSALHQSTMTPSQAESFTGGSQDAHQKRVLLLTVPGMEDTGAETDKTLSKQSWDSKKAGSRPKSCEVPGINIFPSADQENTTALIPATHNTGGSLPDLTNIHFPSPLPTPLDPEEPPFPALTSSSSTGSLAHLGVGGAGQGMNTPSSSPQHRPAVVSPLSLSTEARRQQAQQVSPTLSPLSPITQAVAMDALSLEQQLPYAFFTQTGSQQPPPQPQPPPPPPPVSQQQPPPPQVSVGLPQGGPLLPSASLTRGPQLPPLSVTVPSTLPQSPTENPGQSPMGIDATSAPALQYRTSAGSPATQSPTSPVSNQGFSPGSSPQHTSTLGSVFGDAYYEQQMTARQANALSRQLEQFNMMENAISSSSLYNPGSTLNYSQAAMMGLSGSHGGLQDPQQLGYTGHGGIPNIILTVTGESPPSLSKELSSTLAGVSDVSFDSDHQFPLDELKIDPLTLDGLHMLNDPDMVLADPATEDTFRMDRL
Experiment: co-IP; endogenous proteins; cortical neurons (12 DIV) treated with vehicle or FSK/KCl, crosslinked with 1% formaldehyde, lysed by sonication (50 mM Tris-HCl pH 8, 1% Triton X-100, 100 mM NaCl, 1 mM MgCl2); 2 mg protein immunoprecipitated overnight at 4 °C with anti-CREB or anti-CRTC1, Dynabeads protein G; blots of CRTC1 and pCREB; percent normalised to the maximum immunoprecipitation with the specific antibody in …
Conditions: partners not purified

B1: cAMP-responsive element-binding protein (CREB) (natural protein)
chain: not shown
modifications: phosphoserine at 133 (blotted as pCREB after FSK/KCl)
notes: Precipitated with an anti-CREB antibody and detected on blots as phosphorylated CREB (Ser133); also called pCREB; endogenous CREB; source: endogenous, mouse primary cortical neurons (12 DIV), formaldehyde-crosslinked, in lysate
For B1, the “percent of pCREB co-immunoprecipitated with anti-CRTC1 (FSK/KCl), relative to its immunoprecipitation with anti-CREB” value was ~50%.

Reference: PMC5740062, “CRTC1 mediates preferential transcription at neuronal activity-regulated CRE/TATA promoters” (Scientific Reports, 2017)
